PubChem BioAssay AID504339 (National Center for Advancing Translational Sciences (NCATS), 2011)
In all, about 390,000 compounds went through this assay and about 17,000 (4.4%) were called active. Inconclusive means that the source gave no clear call. Such entries were picked first, then a sample of the others. Calls follow the shape of the dose curve; as a rule, active = well fitted inhibition curve with a large enough effect; inconclusive = small, poorly fitted or top-dose-only effect; inactive = no such curve, though single readings can be large or run the other way. Potencies beside an inconclusive call are fits to weak or partial responses and may not hold up. Square brackets hold non-standard residues; d marks the D form. Peptide text beside a SMILES is read from it. * marks the point of attachment. ξ: configuration not given here. Cbz = O=C(OCc1ccccc1)*; OBn = c1ccc(CO*)cc1; ξP = O=C(O)C1CCCN1

target: Lysine-specific demethylase 4A (Homo sapiens) (UniProt O75164); test: qHTS Assay for Inhibitors of JMJD2A-Tudor Domain; conditions: AlphaScreen JMJD2A-Tudor / H3K4me3 peptide binding; series mostly up to 114 µM; also: nearly all actives have a fitted effect of over 50% in size
Potency is read from the fitted curve at half-maximal effect; tags tell the direction and shape of the fitted curve.

Sequence of UniProt O75164 (O75164 whole entry, looked up, the tested form may be a part): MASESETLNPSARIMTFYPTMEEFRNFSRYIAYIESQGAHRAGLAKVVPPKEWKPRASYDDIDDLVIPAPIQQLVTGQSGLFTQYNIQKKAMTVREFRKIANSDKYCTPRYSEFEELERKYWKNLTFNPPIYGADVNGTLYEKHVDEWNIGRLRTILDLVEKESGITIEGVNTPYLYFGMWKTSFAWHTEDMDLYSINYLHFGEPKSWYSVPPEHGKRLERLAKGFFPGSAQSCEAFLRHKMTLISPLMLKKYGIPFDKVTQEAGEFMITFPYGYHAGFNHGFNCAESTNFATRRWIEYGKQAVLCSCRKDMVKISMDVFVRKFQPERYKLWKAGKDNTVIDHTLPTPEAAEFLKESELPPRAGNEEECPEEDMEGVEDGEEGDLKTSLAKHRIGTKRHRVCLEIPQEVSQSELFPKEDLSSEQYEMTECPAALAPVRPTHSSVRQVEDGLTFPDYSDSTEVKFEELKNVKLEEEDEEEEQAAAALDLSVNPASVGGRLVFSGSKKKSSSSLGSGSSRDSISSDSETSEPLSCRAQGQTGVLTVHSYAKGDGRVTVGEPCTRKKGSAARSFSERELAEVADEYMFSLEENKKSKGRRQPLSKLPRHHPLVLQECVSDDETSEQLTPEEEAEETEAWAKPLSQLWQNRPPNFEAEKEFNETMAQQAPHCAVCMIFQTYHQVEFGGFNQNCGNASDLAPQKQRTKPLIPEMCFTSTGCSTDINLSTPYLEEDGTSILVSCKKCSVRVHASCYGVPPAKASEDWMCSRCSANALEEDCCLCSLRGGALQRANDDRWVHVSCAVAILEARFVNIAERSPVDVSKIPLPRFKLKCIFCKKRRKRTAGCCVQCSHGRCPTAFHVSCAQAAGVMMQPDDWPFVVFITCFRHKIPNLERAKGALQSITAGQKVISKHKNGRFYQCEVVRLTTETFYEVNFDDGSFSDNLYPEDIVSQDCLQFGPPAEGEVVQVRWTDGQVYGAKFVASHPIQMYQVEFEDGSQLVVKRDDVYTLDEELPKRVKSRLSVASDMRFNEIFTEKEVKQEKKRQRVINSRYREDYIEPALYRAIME

Structure (SMILES) | Potency
COCCN(CC(=O)Nc1cccc(C)c1C)C(=O)c1cc2c(s1)CCC2 | inconclusive: 44.7 µM [inhibitor, partial curve]
Cc1ccc(-c2nnc(Nc3ccc(O)cc3)c3ccccc23)cc1S(=O)(=O)NC(C)(C)CO | inactive
COc1oc(C(=O)NC2CCCCC2)c(-c2ccc(Cl)cc2)c1S(=O)(=O)c1ccccc1 | inconclusive: 44.7 µM [inhibitor, partial curve]
O=c1cc(CN2CCc3ccccc32)c2ccc(O)cc2o1 | inconclusive: 50.1 µM [inhibitor, partial curve]
COc1ccc(Nc2cc(C)c3cc(NC(=O)COc4cccc(C)c4)ccc3n2)cc1 | inconclusive: 28.2 µM [inhibitor, full curve, poor fit]
Cc1cc(/C=C2/NC(=O)NC2=O)c(C)n1-c1sc2c(c1C#N)CCCC2 | inconclusive: 56.2 µM [inhibitor, partial curve]
CCN(CC)CCOc1ccc(/C(=C(/Cl)c2ccccc2)c2ccccc2)cc1 | active: 56.2 µM
O=C(CNC(=O)OCc1ccccc1)NCC(=O)N1CCCC1C(=O)OCc1ccccc1 (stereo not drawn) (Cbz-Gly-Gly-[ξP]-OBn) | inconclusive: 89.1 µM [inhibitor, single point]
Cc1cccc(Oc2cc(NC(=O)Cn3cnc([N+](=O)[O-])n3)cc([N+](=O)[O-])c2)c1 | inconclusive: 25.1 µM [inhibitor, single point]
CC(C)NS(=O)(=O)c1ccc(NC(=S)NC(=O)c2cccc([N+](=O)[O-])c2)cc1 | inconclusive: 89.1 µM [inhibitor, partial curve, poor fit]
CC(C)(C)[C@H]1C=C(C(=O)N2CCN(Cc3ccc4c(c3)OCO4)CC2)O[C@@H](OCc2ccc(CO)cc2)C1 | inconclusive: 22.4 µM [inhibitor, full curve, poor fit]
CCCCn1c(=O)c2ccccc2n2c(=S)[nH]nc12 | active: 3.55 µM
Oc1oc(-c2cccc3ccccc23)nc1/C=N/c1nccs1 | inconclusive: 39.8 µM [inhibitor, single point]
CCCCN1C(=N)N([C@@H](CCC)CN2CCC[C@H]2CN2C(N)=NC[C@@H]2Cc2ccccc2)C[C@H]1[C@H](C)CC | inconclusive: 79.4 µM [inhibitor, partial curve]
COC(=O)c1cc(C)nc(Sc2ccccc2N)n1 | active: 44.7 µM
N#C/C(=C\c1ccc(N2CCOCC2)c([N+](=O)[O-])c1)c1nc2ccccc2[nH]1 | inconclusive: 4.47 µM [inhibitor, partial curve, poor fit]
C/C(=N/NC(=O)c1cnccn1)c1ccncc1 | inconclusive: 44.7 µM [inhibitor, partial curve]
O=C(O)CCc1ccc(-c2ccccc2)n1-c1cccc(C(=O)O)c1 | inconclusive: 89.1 µM [inhibitor, single point]
Cc1ccc([C@H]2C(C(=O)O)=CC[C@@H](c3ccc(Cl)cc3)N2S(=O)(=O)c2ccccc2C)cc1 | inactive
C/C(CC(=O)NC1CCCCC1)=N\NC(=O)c1ccccn1 | inconclusive: 2.24 µM [inhibitor, partial curve, poor fit]

Structure (SMILES) | Potency
N/C(=N/OC(=O)c1ccccc1Cl)c1ncc([N+](=O)[O-])s1 | inconclusive: 17.8 µM [inhibitor, partial curve]
O=C(Nc1ccc(F)cc1)N1CCc2ccccc2C1 | inconclusive: 15.8 µM [inhibitor, full curve, poor fit]
Cc1c(C(=O)N2CCN(S(=O)(=O)c3ccccc3)CC2)oc2ccccc12 | inconclusive: 63.1 µM [inhibitor, partial curve, poor fit]
CCOc1ccc(NC(=O)COc2ccc3c(c2)CCC3)cc1OC | inactive
CN=c1scc(-c2ccc(OC)cc2)n1/N=C(\C)c1cccnc1 | active: 50.1 µM
CN(CC(=O)Nc1ncn[nH]1)S(=O)(=O)c1ccc(Cl)cc1 | inconclusive: 25.1 µM [inhibitor, single point]
CSc1ccccc1-c1n[nH]c(=S)o1 | inconclusive: 39.8 µM [inhibitor, single point]
Cc1ccc(C)c(N2CCN(C(=O)C3CCN(S(=O)(=O)c4cccc5nsnc45)CC3)CC2)c1 | inconclusive: 63.1 µM [inhibitor, partial curve, poor fit]
CC(Oc1ccccc1Cl)C(=O)Nc1ccc(S(=O)(=O)N2CCN(C)CC2)cc1 (stereo not given) | active: 50.1 µM
COc1cccc(-c2nc(N3CC(C)CC(C)C3)c3ccccc3n2)c1O (stereo not given) | inconclusive: 25.1 µM [inhibitor, full curve]
CCN(Cc1ccccc1)S(=O)(=O)c1ccc2[nH]c3c(c2c1)CCCCC3 | inconclusive: 14.1 µM [inhibitor, full curve]
CN(C)c1ccc(C(CNS(=O)(=O)c2ccc3ccccc3c2)c2c[nH]c3ccccc23)cc1 (stereo not given) | active: 28.2 µM
CN(C)/C=C/C(=O)c1ccc(-n2cccc2)cc1 | inconclusive: 89.1 µM [inhibitor, single point]
COc1ccc(C2c3c(nc(Cc4ccccc4)[nH]c3=O)Oc3ccc4ccccc4c32)cc1OC (stereo not given) | inconclusive: 39.8 µM [inhibitor, partial curve]
CN(C)c1ccc(CNC(=O)c2cccn2-c2nnc(N3CCCCC3)s2)cc1 | inconclusive: 56.2 µM [inhibitor, partial curve]
Cc1ccc(C)c(N(C)S(=O)(=O)c2ccc3[nH]cc(C(=O)NC4CCCC4)c(=O)c3c2)c1 | inconclusive: 56.2 µM [inhibitor, partial curve]
CN(C1=C(NC(=O)c2ccc(Cl)cc2)C(=O)c2ccccc2C1=O)c1ccccc1 | active: 4.47 µM
COc1ccc(N=C2S/C(=C\c3cccs3)C(=O)N2CC(C)C)cc1 | inconclusive: 56.2 µM [inhibitor, partial curve]
O=C(COC(=O)c1cccc2c1C(=O)c1ccccc1C2=O)NC1CCCCC1 | active: 39.8 µM
Cc1oc(-c2ccc(Cl)cc2)cc1-c1nn2c(-c3ccoc3C)nnc2s1 | inconclusive: 63.1 µM [inhibitor, partial curve]
